Data taken from the supplement of paper PMC8728848.
Some of the results follow.

Columns and labels:
Assay in all cases: glycan array binding signal (z-score within array); higher = stronger binding
Conditions in all cases: glycan notation: IUPAC condensed, linker removed
[1] = target: Fuc(a1-2)Gal(b1-4)GlcNAc(b1-3)Gal(b1-4)GlcNAc(b1-3)Gal(b1-4)GlcNAc
Outline: (§1)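 Glycan array binding is given as a within-array Z-score, which can be read as non-binding when negative. The arrays, 3228 of them, came from the Consortium for Functional Glycomics database and were retained only where the protein sequence was available. Z-scores were averaged across arrays of the same protein sequence at different concentrations or buffers and across linkers.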

[2] = target: Fuc(a1-2)Gal(b1-4)GlcNAc(b1-3)GalNAc
Outline: as §1

[3] = target: Fuc(a1-2)Gal(b1-4)GlcNAc(b1-3)[Fuc(a1-2)Gal(b1-4)GlcNAc(b1-6)]GalNAc
Outline: as §1

[4] = target: Fuc(a1-2)Gal(b1-4)GlcNAc(b1-3)[Fuc(a1-3)[Gal(b1-4)]GlcNAc(b1-6)]Gal(b1-4)Glc
Outline: as §1

[5] = target: Fuc(a1-2)Gal(b1-4)GlcNAc(b1-6)GalNAc
Outline: as §1

[6] = target: Fuc(a1-2)Gal(b1-4)GlcNAc6S
Outline: as §1

[7] = target: Fuc(a1-2)Gal(b1-4)[Fuc(a1-3)]GlcNAc
Outline: as §1

[8] = target: Fuc(a1-2)Gal(b1-4)[Fuc(a1-3)]GlcNAc(b1-2)Man(a1-3)[Fuc(a1-2)Gal(b1-4)[Fuc(a1-3)]GlcNAc(b1-2)Man(a1-6)]Man(b1-4)GlcNAc(b1-4)[Fuc(a1-6)]GlcNAc
Outline: as §1

[9] = target: Fuc(a1-2)Gal(b1-4)[Fuc(a1-3)]GlcNAc(b1-2)[Fuc(a1-2)Gal(b1-4)[Fuc(a1-3)]GlcNAc(b1-4)]Man(a1-3)[Fuc(a1-2)Gal(b1-4)[Fuc(a1-3)]GlcNAc(b1-2)Man(a1-6)]Man(b1-4)GlcNAc(b1-4)GlcNAc
Outline: as §1

[10] = target: Fuc(a1-2)Gal(b1-4)[Fuc(a1-3)]GlcNAc(b1-3)Gal(b1-4)[Fuc(a1-3)]GlcNAc
Outline: as §1

[11] = target: Fuc(a1-2)Gal(b1-4)[Fuc(a1-3)]GlcNAc(b1-3)Gal(b1-4)[Fuc(a1-3)]GlcNAc(b1-3)Gal(b1-4)[Fuc(a1-3)]GlcNAc
Outline: as §1

[12] = target: Fuc(a1-2)Gal(b1-4)[Fuc(a1-3)]GlcNAc(b1-3)GalNAc
Outline: as §1

[13] = target: Fuc(a1-2)Gal(b1-4)[Fuc(a1-3)]GlcNAc(b1-3)[Neu5Ac(a2-6)Gal(b1-4)GlcNAc(b1-6)]Gal(b1-4)Glc
Outline: as §1

[14] = target: Fuc(a1-2)Gal3S(b1-4)GlcNAc
Outline: as §1

[15] = target: Fuc(a1-2)Gal6S(b1-3)GlcNAc
Outline: as §1

[16] = target: Fuc(a1-2)Gal6S(b1-3)GlcNAc6S
Outline: as §1

[17] = target: Fuc(a1-2)Gal6S(b1-4)Glc
Outline: as §1

[18] = target: Fuc(a1-2)Gal6S(b1-4)Glc6S
Outline: as §1

[19] = target: Fuc(a1-2)[Gal(a1-3)]Gal
Outline: as §1

[20] = target: Fuc(a1-2)[Gal(a1-3)]Gal(b1-3)GalNAc
Outline: as §1

[21] = target: Fuc(a1-2)[Gal(a1-3)]Gal(b1-3)GalNAc(b1-3)Gal(a1-4)Gal(b1-4)Glc
Outline: as §1

[22] = target: Fuc(a1-2)[Gal(a1-3)]Gal(b1-3)GlcNAc
Outline: as §1

[23] = target: Fuc(a1-2)[Gal(a1-3)]Gal(b1-3)GlcNAc(b1-2)Man(a1-3)[Fuc(a1-2)[Gal(a1-3)]Gal(b1-3)GlcNAc(b1-2)Man(a1-6)]Man(b1-4)GlcNAc(b1-4)GlcNAc
Outline: as §1

[24] = target: Fuc(a1-2)[Gal(a1-3)]Gal(b1-3)GlcNAc(b1-2)Man(a1-3)[Fuc(a1-2)[Gal(a1-3)]Gal(b1-3)GlcNAc(b1-2)Man(a1-6)]Man(b1-4)GlcNAc(b1-4)[Fuc(a1-6)]GlcNAc
Outline: as §1

[25] = target: Fuc(a1-2)[Gal(a1-3)]Gal(b1-3)GlcNAc(b1-3)GalNAc
Outline: as §1

[26] = target: Fuc(a1-2)[Gal(a1-3)]Gal(b1-3)GlcNAc(b1-6)GalNAc
Outline: as §1

[27] = target: Fuc(a1-2)[Gal(a1-3)]Gal(b1-4)Glc
Outline: as §1

[28] = target: Fuc(a1-2)[Gal(a1-3)]Gal(b1-4)GlcNAc
Outline: as §1

[29] = target: Fuc(a1-2)[Gal(a1-3)]Gal(b1-4)GlcNAc(b1-2)Man
Outline: as §1

[30] = target: Fuc(a1-2)[Gal(a1-3)]Gal(b1-4)GlcNAc(b1-2)Man(a1-3)[Fuc(a1-2)[Gal(a1-3)]Gal(b1-4)GlcNAc(b1-2)Man(a1-6)]Man(b1-4)GlcNAc(b1-4)GlcNAc
Outline: as §1

[31] = target: Fuc(a1-2)[Gal(a1-3)]Gal(b1-4)GlcNAc(b1-2)Man(a1-3)[Fuc(a1-2)[Gal(a1-3)]Gal(b1-4)GlcNAc(b1-2)Man(a1-6)]Man(b1-4)GlcNAc(b1-4)[Fuc(a1-6)]GlcNAc
Outline: as §1

[32] = target: Fuc(a1-2)[Gal(a1-3)]Gal(b1-4)GlcNAc(b1-3)GalNAc
Outline: as §1

[33] = target: Fuc(a1-2)[Gal(a1-3)]Gal(b1-4)GlcNAc(b1-3)[Fuc(a1-2)[Gal(a1-3)]Gal(b1-4)GlcNAc(b1-6)]GalNAc
Outline: as §1

[34] = target: Fuc(a1-2)[Gal(a1-3)]Gal(b1-4)GlcNAc(b1-6)GalNAc
Outline: as §1

[35] = target: Fuc(a1-2)[Gal(a1-3)]Gal(b1-4)[Fuc(a1-3)]Glc
Outline: as §1

[36] = target: Fuc(a1-2)[Gal(a1-3)]Gal(b1-4)[Fuc(a1-3)]GlcNAc
Outline: as §1

[37] = target: Fuc(a1-2)[Gal(a1-3)]Gal(b1-4)[Fuc(a1-3)]GlcNAc(b1-3)GalNAc
Outline: as §1

[38] = target: Fuc(a1-2)[Gal(a1-4)]Gal(b1-4)GlcNAc
Outline: as §1

[39] = target: Fuc(a1-2)[GalNAc(a1-3)]Gal
Outline: as §1

[40] = target: Fuc(a1-2)[GalNAc(a1-3)]Gal(b1-3)GalNAc(a1-3)[Fuc(a1-2)]Gal(b1-4)GlcNAc
Outline: as §1

[41] = target: Fuc(a1-2)[GalNAc(a1-3)]Gal(b1-3)GalNAc(b1-3)Gal(a1-4)Gal(b1-4)Glc
Outline: as §1

[42] = target: Fuc(a1-2)[GalNAc(a1-3)]Gal(b1-3)GlcNAc
Outline: as §1

[43] = target: Fuc(a1-2)[GalNAc(a1-3)]Gal(b1-3)GlcNAc(b1-2)Man(a1-3)[Fuc(a1-2)[GalNAc(a1-3)]Gal(b1-3)GlcNAc(b1-2)Man(a1-6)]Man(b1-4)GlcNAc(b1-4)GlcNAc
Outline: as §1

[44] = target: Fuc(a1-2)[GalNAc(a1-3)]Gal(b1-3)GlcNAc(b1-2)Man(a1-3)[Fuc(a1-2)[GalNAc(a1-3)]Gal(b1-3)GlcNAc(b1-2)Man(a1-6)]Man(b1-4)GlcNAc(b1-4)[Fuc(a1-6)]GlcNAc
Outline: as §1

[45] = target: Fuc(a1-2)[GalNAc(a1-3)]Gal(b1-3)GlcNAc(b1-3)GalNAc
Outline: as §1

B1: Pwp2 (Candida glabrata) (protein)
chain: MGSSHHHHHHSSGLVPRGSHMASKNPVELNNVCTFPNDYGRIPGFTVLVGRLGLLISASDYKELLRYPGAFLIATQDTMTTSPNFELTGFPFFTGLYGLTVFPLDLLVELRGYFVPPNSGQYTFTLSDSDDAAIIFLGNPSAFPCGDLQNWPKPSEEDITVTDHLFPSRTLYLIEGVAYPMRIAYYNGIGAGRLNAAFIDPSGTRHTNWEGYIWQYDPCSTCTYS
glycan array binding signal (z-score) [1]: 0.261 | glycan array binding signal (z-score) [2]: -0.48 | glycan array binding signal (z-score) [3]: 3.01 | glycan array binding signal (z-score) [4]: 0.384 | glycan array binding signal (z-score) [5]: -0.293 | glycan array binding signal (z-score) [6]: -0.464 | glycan array binding signal (z-score) [7]: -0.132 | glycan array binding signal (z-score) [8]: -0.003 | glycan array binding signal (z-score) [9]: 0.016 | glycan array binding signal (z-score) [10]: -0.673 | glycan array binding signal (z-score) [11]: -0.086 | glycan array binding signal (z-score) [12]: -0.225 | glycan array binding signal (z-score) [13]: -0.401 | glycan array binding signal (z-score) [14]: 2.57 | glycan array binding signal (z-score) [15]: -0.476 | glycan array binding signal (z-score) [16]: -0.073 | glycan array binding signal (z-score) [17]: -0.381 | glycan array binding signal (z-score) [18]: -1.36 | glycan array binding signal (z-score) [19]: 1.65 | glycan array binding signal (z-score) [20]: -0.201 | glycan array binding signal (z-score) [21]: -0.25 | glycan array binding signal (z-score) [22]: 0.664 | glycan array binding signal (z-score) [23]: -0.12 | glycan array binding signal (z-score) [24]: 0.126 | glycan array binding signal (z-score) [25]: 1.19 | glycan array binding signal (z-score) [26]: -0.62 | glycan array binding signal (z-score) [27]: -0.481 | glycan array binding signal (z-score) [28]: -0.462 | glycan array binding signal (z-score) [29]: -0.503 | glycan array binding signal (z-score) [30]: -0.438 | glycan array binding signal (z-score) [31]: 0.098 | glycan array binding signal (z-score) [32]: -0.603 | glycan array binding signal (z-score) [33]: -0.24 | glycan array binding signal (z-score) [34]: 3.17 | glycan array binding signal (z-score) [35]: -0.537 | glycan array binding signal (z-score) [36]: -0.529 | glycan array binding signal (z-score) [37]: -0.465 | glycan array binding signal (z-score) [38]: -0.494 | glycan array binding signal (z-score) [39]: -0.745 | glycan array binding signal (z-score) [40]: 0.144 | glycan array binding signal (z-score) [41]: -0.386 | glycan array binding signal (z-score) [42]: -0.368 | glycan array binding signal (z-score) [43]: -0.258 | glycan array binding signal (z-score) [44]: -0.465 | glycan array binding signal (z-score) [45]: -0.08
